Assay results taken from the supplement of paper PMC10126150.
Values marked as one replicate rest on one cluster of the flow cell; about a third of the high ones do not repeat.

System: ATP
Assay: switch fluorescence ratio, 500 uM ATP over buffer (Cy3 cluster intensity, sum of 5 cycles each) (fold (ratio)); higher = stronger signal-on switching upon ATP binding; sequences stand for … in TCGTCGGCAGCGTCAGATGTGTATAAGAGACAGTTTTTTTTTTTTTTTTTTTTTTTTT…TC
Conditions: aptamer strand: ATP DNA aptamer (quencher-CACCTGGGGGAGTATTGCGGAGGAAGG + anchor), 100 nM annealed; ATP concentration: 500 uM; one replicate
Summary of the method: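 Imaging in selection buffer was followed by imaging after 15 min with 500 uM ATP at 22 °C, for Cy3-labelled switching-strand clusters annealed to 100 nM quencher-labelled ATP aptamer on a modified Illumina MiSeq flow-cell. Five of these buffer/ATP cycles ran, separated by NaOH stripping and re-annealing. The fluorescence ratio per cluster is summed target-cycle over summed buffer-cycle Cy3 intensity, averaged per switch-domain sequence; clusters outside 100-1000 RFU were removed.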
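Also: ATP exposure 15 min at 22 °C before imaging.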

Row | Sequence | switch fluorescence ratio
1 | TCTTAACAT | 1.04
2 | TGTCTGGGC | 0.962
3 | CTTAGCTTTA | 1.04
4 | GAGAGGGCGG | 0.946
5 | GACCCGTTCT | 1.06
6 | TGAGTCCCCT | 1.03
7 | GTGACTCCGT | 1.33
8 | GCATGGATTT | 1.02
9 | GAGGATGCTT | 1.06
10 | CCAATAAGTT | 0.963
11 | AGGTTTACTC | 0.976
12 | ACTTCTACGG | 1.15
13 | TGAGCCAGAG | 1.02
14 | TTGGGATAGC | 0.984
15 | CCACGTGAGA | 1.07
16 | GCAGACCGAC | 1.83
17 | GCGGCATGGC | 0.984
18 | TGATTGAAGT | 0.95
19 | GGGTGGCTCA | 0.985
20 | CTTACAGGTC | 0.999
21 | GGGGCTCTGC | 0.964
22 | TCAAACTATT | 1.03
23 | ACCGAGGGGC | 1.03

Row | Sequence | switch fluorescence ratio
24 | TTGTAGGGG | 1.02
25 | CAGGGTCAAC | 0.957
26 | AACTGACTAT | 1.09
27 | TTTTAAATCA | 1.05
28 | TAGCGTTTG | 0.985
29 | AGTTGGATTC | 1
30 | AGATGTGGAC | 0.973
31 | GGGCTTGGTT | 1.04
32 | TAGTCTACAT | 1.05
33 | TAGTATCATT | 0.945
34 | AGTTTGCGGA | 1.01
35 | TAACCTCTG | 1.02
36 | GACCGGGAAA | 1.06
37 | CATTACCTCG | 1.03
38 | ACTTCGCGCC | 2.34
39 | ATTTCATTCT | 1
40 | TCGGTTTTAG | 0.985
41 | GCCCTCTGCG | 1.12
42 | CGCTAATAAT | 1.58
43 | ATCGCTGTCT | 1.02
44 | GATGTACTCA | 0.989
45 | GCGTACGAAT | 0.955
46 | AAGATAATTG | 1.06

Row | Sequence | switch fluorescence ratio
47 | TTACCATTTT | 1.04
48 | ATCATACGTC | 1.02
49 | CAGCGATTGT | 1.01
50 | CGTAACTTAA | 0.988
51 | AGCAGGGGCA | 1.06
52 | CGGTGCGTTT | 1.04
53 | AAAGTGGCAG | 1.01
54 | TCATCCGCT | 1.96
55 | TACCATACAG | 1.28
56 | AAACGCAGCC | 1.39
57 | AGCGAGGC | 1.29
58 | GTCGAAGCTG | 1.01
59 | TGGTGAGCTG | 1.01
60 | GATAACGCGG | 1.11
61 | AGGCTAAGGA | 1.05
62 | TCGGACGCTG | 1.06
63 | CAAGAGCGAG | 1.04
64 | AAGTTTTCTT | 0.988
65 | CACTTATCC | 0.987
66 | GCGGGTTGTG | 0.968
67 | CCTGAACTTT | 1.02
68 | AGTGCGTCTG | 0.972
69 | GTCTGGTGAT | 0.975

Row | Sequence | switch fluorescence ratio
70 | GCACTGATGG | 0.96
71 | ATGTTCTACT | 1.02
72 | ATCTTTTCGT | 0.966
73 | GTCCTCGGGT | 1.01
74 | CTGAGGATGG | 1.03
75 | AATGGAGTTA | 1
76 | CGTAATAT | 2.94
77 | ACGAAGTCCT | 0.968
78 | ACGAAATAAT | 1.02
79 | TCTTCTTCGG | 1.01
80 | TATCATAATT | 1.01
81 | AAAATAGGTG | 1.06
82 | TTCACGTTTC | 1.04
83 | GAAAGGTATG | 1.04
84 | AACAGCTC | 1.01
85 | ATCAGCATAA | 1.27
86 | GTTCAAGATT | 1.02
87 | ACTGTGTGCC | 0.985
88 | TTTGAAAGTC | 0.972
89 | AAGTCGATAG | 1.01
90 | ATTGCCACG | 1.03
91 | ATTGTGAGTC | 0.971
92 | CAGACCACTA | 1.1

Row | Sequence | switch fluorescence ratio
93 | AGCTGAGGTA | 0.995
94 | GCTCGTCACG | 0.95
95 | GGGATTGTGG | 0.961
96 | TTTAAAGTCC | 1.01
97 | GCATCCAGTG | 1.2
98 | ATGGAGCGTT | 1.02
99 | CGGCAAACT | 2.5
100 | GGGCTGAAAA | 1
101 | GCACTTTGAA | 1.01
102 | GGCCCCCGAA | 1.02
103 | GGAAGGAGGT | 1.04
104 | TTAGCGGGCC | 0.992
105 | TTGTCTTAAA | 1.02
106 | AGGCTCTTGG | 1.01
107 | TACTTACCGG | 1.11
108 | CTGGTAGGTA | 0.986
109 | GTAAACCAGT | 0.983
110 | TTGCGGTTCT | 1.04
111 | ATTAAAAAGC | 1.01
112 | TACGAGACTA | 1.09
113 | GGACATGTCT | 0.983
114 | GATAGTAATC | 1
115 | TAGTGCCTCA | 1

Row | Sequence | switch fluorescence ratio
116 | GGTACGATCC | 1.02
117 | TGTCATTAGG | 0.979
118 | GTGACGGATT | 1.02
119 | ACGAGGTCTA | 1.01
120 | TAGTCTGACA | 0.991
121 | ATGTGTTGTC | 1.03
122 | ACTTCGGCCA | 1.04
123 | TCCCTTCGGT | 1.05
124 | AAAGTACTTA | 1.12
125 | AGGGCGATGG | 1.05
126 | CCTGGTTTAA | 0.995
127 | TCGAGGGTGT | 1.07
128 | GATGGGGA | 1.01
129 | AAGAAGGGGG | 0.93
130 | TAATGCAT | 0.975
131 | GGATAGATAG | 0.983
132 | CCTTGTTACG | 1.15
133 | CTGGCCATGT | 1.02
134 | ATTATCACG | 1.03
135 | ATGGACGAGT | 0.972
136 | CGGTTGCTAA | 1.25
137 | CATGTATACG | 1.06
138 | ATTGAGACAG | 0.972

Row | Sequence | switch fluorescence ratio
139 | TTAAGTCTGG | 0.96
140 | AACTGAAAAA | 1.07
141 | TTATTAGAGG | 0.938
142 | CGAAGTCTTG | 0.965
143 | ACGTCTGGGT | 0.99
144 | GCAGAGGCAT | 1.01
145 | TTTACCAG | 1.05
146 | TGCGGGTGTT | 0.973
147 | ATAGTTGATA | 1
148 | GATTGTCAAC | 0.994
149 | GAGAAAAGAT | 1.01
150 | GGAATTCTGA | 1.02
151 | ATTGTTCTCT | 1.03
152 | TGATATAGGT | 1.02
153 | AGAGGGTTCC | 1.13
154 | CGAGAAACGT | 1
155 | AGCACCCCTT | 1.14
156 | CCAGGGCCGT | 1.06
157 | TGTCGTTAGT | 1.03
158 | CCCCTGTTC | 1.08
